This note sets out measurements from the supplement of paper PMC10126150.

Values marked as one replicate rest on one cluster of the flow cell; about a third of the high ones do not repeat.
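Further: ATP exposure 15 min at 22 °C before imaging.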

The test system of this data set is ATP. The data set can be described thus: switch fluorescence ratio, 500 uM ATP over buffer (Cy3 cluster intensity, sum of 5 cycles each) (fold (ratio)); higher = stronger signal-on switching upon ATP binding; sequences stand for … in TCGTCGGCAGCGTCAGATGTGTATAAGAGACAGTTTTTTTTTTTTTTTTTTTTTTTTT…TC. The conditions noted are these: aptamer strand: ATP DNA aptamer (quencher-CACCTGGGGGAGTATTGCGGAGGAAGG + anchor), 100 nM annealed; ATP concentration: 500 uM; one replicate. An outline of the steps: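 The fluorescence ratio divides summed target-cycle Cy3 intensity by summed buffer-cycle Cy3 intensity for each cluster and is averaged per switch-domain sequence. Cy3-labelled switching-strand clusters on a modified Illumina MiSeq flow-cell were annealed to 100 nM quencher-labelled ATP aptamer, then imaged in selection buffer and again after 15 min with 500 uM ATP at 22 °C. Five such cycles were run, with NaOH stripping and re-annealing between them, and clusters outside 100-1000 RFU were excluded.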
For the sequence CGAAACTGTT, the switch fluorescence ratio was 1.08.

As for GCGTTGATTA, the switch fluorescence ratio was found to be 1.01.

As for GGGACAGGGT, the switch fluorescence ratio is 1.

As to ACCATCGAAA, the switch fluorescence ratio is 1.03.

On to CTCCTTAGCA, for which the switch fluorescence ratio turned out to be 1.26.

As for TCAGTTGCAG, the switch fluorescence ratio is 0.983.

Consider CGGTCATTAA, for which the switch fluorescence ratio was 1.

Consider GCCTAGTAAC, for which the switch fluorescence ratio is 0.957.

For AATTAAGTGC, the switch fluorescence ratio was 1.01.

As to TGCATGGGGC, the switch fluorescence ratio is 1.01.

TCCGGATCCG: the switch fluorescence ratio was 1.02.

Take TTAAGTGCGA: the switch fluorescence ratio is 1.

As for ATAGACGCGC, the switch fluorescence ratio came to 0.987.

Regarding TCCTTGTAAC, the switch fluorescence ratio is 1.21.

CATCGCTGGG: the switch fluorescence ratio turned out to be 1.04.

On to TAACAGGCCT, for which the switch fluorescence ratio came out at 0.914.

Consider GTCATCCCAC, for which the switch fluorescence ratio was 1.14.

With GCAGGCCGTC, the switch fluorescence ratio worked out at 1.

CCCGCTCTGG: the switch fluorescence ratio stood at 1.17.

Regarding GCTATGCGCT, the switch fluorescence ratio came out at 0.979.

Consider CGGTCATAT, for which the switch fluorescence ratio amounted to 1.02.

As for TTATGCTAGG, the switch fluorescence ratio came to 0.956.

Take ATGCCGCCGG: the switch fluorescence ratio came out at 1.01.

Regarding TAATGCTAC, the switch fluorescence ratio turned out to be 1.2.

CGTGAGATAA: the switch fluorescence ratio was determined as 1.02.

As for TACCGGGTAC, the switch fluorescence ratio stood at 1.16.

For the sequence TCGCTTTGTT, the switch fluorescence ratio was 0.978.

On to ACGAACAGCA, for which the switch fluorescence ratio worked out at 1.11.

As to ACATGGCTTG, the switch fluorescence ratio came out at 0.994.

In the case of AGGTCATGTT, the switch fluorescence ratio is 0.965.

Take GTACTTCTAA: the switch fluorescence ratio stood at 1.04.

With GCAATATCGG, the switch fluorescence ratio turned out to be 1.57.

Take ACTTCCGGTG: the switch fluorescence ratio stood at 2.53.

Turning to ATCGGATGTT, the switch fluorescence ratio amounted to 0.964.

As for CTGGAAAGCC, the switch fluorescence ratio amounted to 0.983.

Consider TGCTGTTATT, for which the switch fluorescence ratio worked out at 1.72.

As to GGGACGCGAC, the switch fluorescence ratio came to 1.18.

On to GTGGCAGCCC, for which the switch fluorescence ratio was found to be 1.01.

Consider TGTGCTTGGT, for which the switch fluorescence ratio turned out to be 1.02.

Turning to AGAAGCTTGG, the switch fluorescence ratio was 0.978.

As for AGCCTAGAAC, the switch fluorescence ratio was determined as 1.

Turning to ATGCCTGGTA, the switch fluorescence ratio was determined as 0.996.

Regarding CTGAGCATCG, the switch fluorescence ratio is 1.03.

TTCACGAGAC: the switch fluorescence ratio was 2.47.

Take GCCTGAGTCA: the switch fluorescence ratio was determined as 1.09.

On to TTGTCCCTTG, for which the switch fluorescence ratio is 1.01.

Consider ACTTGTGGCA, for which the switch fluorescence ratio worked out at 1.

As for TTCTCAGGGA, the switch fluorescence ratio came out at 1.03.

As for ACTAGGGAAA, the switch fluorescence ratio worked out at 0.961.

As for GCGGTGGGGC, the switch fluorescence ratio came out at 0.984.

As for TTAATTGCCC, the switch fluorescence ratio was 1.04.

TGAATACTGG: the switch fluorescence ratio was 1.09.

As for TGTTTTAGTC, the switch fluorescence ratio came to 0.987.

In the case of TTTCCGTCCT, the switch fluorescence ratio came out at 1.07.

In the case of TTACAGGCTT, the switch fluorescence ratio worked out at 1.01.

With TTGTTCAATT, the switch fluorescence ratio stood at 1.02.

Take TGTTATGCAC: the switch fluorescence ratio stood at 0.978.

With AAGCTTATAC, the switch fluorescence ratio came to 4.62.

With TCCTCCCCCT, the switch fluorescence ratio came out at 2.27.

For the sequence CTCAGGGCGC, the switch fluorescence ratio was found to be 1.

Consider TCTCTAAAAG, for which the switch fluorescence ratio was determined as 1.01.

Take ATTCGAGGTC: the switch fluorescence ratio worked out at 0.991.

As for TTCTAGTCTG, the switch fluorescence ratio came to 1.01.

For the sequence CAATCGTTGT, the switch fluorescence ratio stood at 1.

With GCCGCGGGG, the switch fluorescence ratio is 0.959.

In the case of AAACCATGGA, the switch fluorescence ratio is 0.99.

As for ATAACAAAGG, the switch fluorescence ratio turned out to be 1.03.

Turning to GATTTGAGCC, the switch fluorescence ratio came to 0.976.

On to TCCACGAATA, for which the switch fluorescence ratio was found to be 1.03.

TCCCTTGCTT: the switch fluorescence ratio was 1.3.

Turning to CCACAAATTA, the switch fluorescence ratio is 1.02.

On to ACCGGGAAGC, for which the switch fluorescence ratio stood at 1.03.

TCCTTTGCCC: the switch fluorescence ratio was 1.02.

Regarding GGTACGTTAG, the switch fluorescence ratio worked out at 1.01.

For the sequence ACCGGATTTC, the switch fluorescence ratio was found to be 1.1.

For the sequence CTTGAATAGC, the switch fluorescence ratio was 1.

As to CTTCATTATT, the switch fluorescence ratio worked out at 0.947.

On to ATATTTAGTA, for which the switch fluorescence ratio came to 0.929.

As to TACGATTTAG, the switch fluorescence ratio turned out to be 1.04.

Take AAATAGGTAC: the switch fluorescence ratio worked out at 0.974.

On to CTTTCAGATA, for which the switch fluorescence ratio is 1.04.

Turning to CTAAGAGCCC, the switch fluorescence ratio worked out at 1.02.

For the sequence AGGTTCCGCC, the switch fluorescence ratio is 1.05.

Turning to ATACAGGGAC, the switch fluorescence ratio turned out to be 1.01.

Regarding TACAATGGTC, the switch fluorescence ratio is 0.947.

For the sequence TACGATCAGA, the switch fluorescence ratio turned out to be 1.02.

As to ACTATTACGT, the switch fluorescence ratio amounted to 1.13.

As to GGTCGCCTTT, the switch fluorescence ratio worked out at 0.979.

GGGACTGCAC: the switch fluorescence ratio turned out to be 1.4.

With GGGGCTGTA, the switch fluorescence ratio was 1.07.

Regarding TAATTGACGA, the switch fluorescence ratio was 1.06.

Turning to AGCGATAAGC, the switch fluorescence ratio amounted to 0.98.

With AGCTTCCGCC, the switch fluorescence ratio was determined as 2.98.

Take AGCATAGTG: the switch fluorescence ratio was found to be 1.03.

For the sequence CGTGACCATC, the switch fluorescence ratio came out at 1.04.

With CAGTAGACAT, the switch fluorescence ratio amounted to 1.

As for AATGCTTTTG, the switch fluorescence ratio amounted to 1.01.

CCGCGGGACT: the switch fluorescence ratio is 5.93.

Turning to TTCTGTAAGT, the switch fluorescence ratio turned out to be 1.02.

On to ACCATGTTAG, for which the switch fluorescence ratio was 1.04.

As to TTATACTGTA, the switch fluorescence ratio came to 1.41.

On to CTACTCTTTC, for which the switch fluorescence ratio turned out to be 1.15.

On to GTCCGAATTG, for which the switch fluorescence ratio is 1.02.

CCGTACCGAA: the switch fluorescence ratio amounted to 1.71.

In the case of TACAGCAATT, the switch fluorescence ratio was determined as 1.74.

Regarding GAAGCGGCTA, the switch fluorescence ratio came out at 1.02.

As for AATTTTACCC, the switch fluorescence ratio came out at 1.09.

Consider TATGGTTGG, for which the switch fluorescence ratio came to 0.959.

In the case of ACATGGGGTG, the switch fluorescence ratio was 1.11.

On to AACGGACTCT, for which the switch fluorescence ratio is 1.19.

For AGGAACGGAG, the switch fluorescence ratio was determined as 1.01.

For the sequence ATCGTGACAA, the switch fluorescence ratio is 1.03.

For TCTTTGGGT, the switch fluorescence ratio was determined as 1.01.

Regarding GTTATTCGTA, the switch fluorescence ratio amounted to 0.959.

As to CATTACTGCG, the switch fluorescence ratio was 1.04.

With GTTGCAAGGG, the switch fluorescence ratio turned out to be 1.01.

Consider GCAAATATCT, for which the switch fluorescence ratio worked out at 1.05.

In the case of TAATAAGGGC, the switch fluorescence ratio was 0.985.

For the sequence GCCCGGGATC, the switch fluorescence ratio was determined as 1.06.

GGTTTCAGGC: the switch fluorescence ratio amounted to 0.973.
